Positions count from the first letter of the chain named. Where two headings read alike, the source gives them in different places.

The target of experiment [1] is T1, recombinant mature myostatin (human, UniProt O14793 267-375).
T1 sequence (looked up): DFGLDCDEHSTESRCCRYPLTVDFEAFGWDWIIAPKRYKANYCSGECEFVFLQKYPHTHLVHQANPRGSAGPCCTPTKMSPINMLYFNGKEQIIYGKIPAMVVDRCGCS
The experiment can be described thus: cell-based or functional assay.

The target in experiment [2] is T1, recombinant mature myostatin. The experiment can be described thus: cell-based or functional assay. This is another data set of the same source.

B1: Myostatin-Linear-20 (Fc fusion)
chain: MYREMSMLEGLLDVLERLQHYGGGGG[letters of human IgG1 Fc left out]
With B1, the IC50 (C2C12 pMARE-luc) in experiment [1] amounted to 11 nM.

B2: Myostatin-2xTN8-19 kc (Fc fusion)
chain: [letters of human IgG1 Fc left out]GSGSATGGSGSTASSGSGSATGQGHCTRWPWMCPPYGSGSATGGSGSTASSGSGSATGQGHCTRWPWMCPPY
B2: in experiment [2], the “IC50 (C2C12 pMARE-luc)” value was approximately 9 nM.

B3: mL2-7 (Fc fusion)
chain: MGAQRMEMLESLFELLKEIVPMSKAGLEGGGGG[letters of human IgG1 Fc left out]
Turning to B3, the IC50 (C2C12 pMARE-luc) in experiment [1] is 90.2 nM.

B4: mL2-9 (Fc fusion)
chain: B3 chain with R5Q, M8L, E10D, M22K, K24Q, A25P, G26A
Take B4: the IC50 (C2C12 pMARE-luc) in experiment [1] was found to be 106 nM.

B5: Myostatin-TN12-34 (Fc fusion)
chain: MAHWCEQGPWRYGNICMAYGGGGG[letters of human IgG1 Fc left out]GGGGGAHWCEQGPWRYGNICMAY
On to B5, for which, in experiment [1], the IC50 (C2C12 pMARE-luc) is 30 nM.

(Values after patent US20040181033A1 (Amgen, published 2004).)
